Out of some 310,000 compounds screened, about 14,000 (4.5%) showed an effect of 50% or more. The effect is printed as a negative number. This is one part of the list.
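Further: peak tail current of the secondary pulse compared with the same well before compound.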

The experiment deals with human ether-à-go-go-related gene (hERG) potassium channel (human, UniProt Q12809). Description: primary screen, population patch clamp on CHO cells stably expressing hERG.
human ether-à-go-go-related gene (hERG) potassium channel, sequence (Q12809 whole entry, looked up): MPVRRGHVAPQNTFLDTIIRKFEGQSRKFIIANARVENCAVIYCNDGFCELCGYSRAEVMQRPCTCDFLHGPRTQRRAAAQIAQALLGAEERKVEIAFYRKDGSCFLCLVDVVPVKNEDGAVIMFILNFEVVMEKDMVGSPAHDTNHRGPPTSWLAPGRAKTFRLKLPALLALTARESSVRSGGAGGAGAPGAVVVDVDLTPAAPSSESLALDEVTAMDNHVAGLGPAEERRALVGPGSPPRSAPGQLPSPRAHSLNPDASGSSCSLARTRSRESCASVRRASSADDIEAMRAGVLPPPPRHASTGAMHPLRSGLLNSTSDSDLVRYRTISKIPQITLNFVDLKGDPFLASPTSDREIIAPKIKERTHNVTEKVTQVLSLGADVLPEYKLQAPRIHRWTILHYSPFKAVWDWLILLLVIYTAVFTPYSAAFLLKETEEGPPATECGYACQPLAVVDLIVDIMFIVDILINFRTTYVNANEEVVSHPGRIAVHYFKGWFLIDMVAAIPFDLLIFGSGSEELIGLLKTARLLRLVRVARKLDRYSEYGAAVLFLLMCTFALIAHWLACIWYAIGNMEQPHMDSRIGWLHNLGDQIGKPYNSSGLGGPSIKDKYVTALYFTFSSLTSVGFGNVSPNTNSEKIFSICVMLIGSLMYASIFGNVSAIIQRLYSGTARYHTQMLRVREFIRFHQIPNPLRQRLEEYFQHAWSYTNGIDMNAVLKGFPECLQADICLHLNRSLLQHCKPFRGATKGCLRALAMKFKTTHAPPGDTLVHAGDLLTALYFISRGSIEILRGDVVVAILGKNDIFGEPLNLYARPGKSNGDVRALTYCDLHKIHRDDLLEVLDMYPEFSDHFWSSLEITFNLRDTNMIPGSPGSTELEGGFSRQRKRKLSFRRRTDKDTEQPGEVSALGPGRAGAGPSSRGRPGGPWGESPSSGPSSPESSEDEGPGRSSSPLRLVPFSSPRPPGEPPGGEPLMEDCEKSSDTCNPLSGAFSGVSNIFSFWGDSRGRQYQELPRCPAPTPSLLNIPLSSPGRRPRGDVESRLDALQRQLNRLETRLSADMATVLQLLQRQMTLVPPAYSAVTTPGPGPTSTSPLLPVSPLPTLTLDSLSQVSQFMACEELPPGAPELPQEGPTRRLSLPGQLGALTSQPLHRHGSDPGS
Take `COC(=O)c1sccc1NC(=O)Nc1ccc(Cl)c(Cl)c1`: the “hERG current change (%, negative = inhibition) at 10uM” value worked out at 14.1%.
Take `CCOP(=O)(OCC)C(NC(C)=O)C(=O)c1ccccc1` (stereo not shown): the “hERG current change (%, negative = inhibition) at 10uM” value was 23.1%.
Next, `COc1ccc2cc(C#N)c(SCC(=O)NNC(=O)Cc3ccccc3)nc2c1`: 16.2%; `COC(=O)c1ccccc1NC(=O)c1ccccc1N(C)S(C)(=O)=O`: 7.56%; `O=C(Nc1ccnc(-c2ccncc2)n1)c1ccc(F)cc1`: 8.55%.
Next, `O=C(NCc1ccco1)C1CCN(S(=O)(=O)Cc2ccccc2)CC1`: -5.29%; `CCOC(=O)c1csc(NC(=O)CN2CCOCC2)n1`: 15.8%; `O=C(NCc1ccncc1)c1cn(-c2ccccc2)nc1-c1cccnc1`: -62%.
The figure for `COc1ccc(C2CC(=O)N(CCC[NH+](C)CCc3ccc(OC)c(OC)c3)C2)cc1.O=C([O-])C(=O)[O-]` (stereo not shown) is -74.7%; for `Cc1onc(-c2c(F)cccc2Cl)c1C(=O)NCc1ccc2c(c1)OCO2` it is 9.77%; for `CCN(CC)C(C(=O)Nc1ccc(C(C)C)cc1)c1ccc2c(c1)OCO2` (stereo not shown) it is -9.99%.
With `NC(=O)CSc1cn(Cc2cccc(F)c2)c2ccccc12`, the “hERG current change (%, negative = inhibition) at 10uM” value was -26.7%.
The figure for `COc1cccc(C(=O)NC(=S)NCc2ccco2)c1` is 9.98%; for `O=C(O)CN1C(=O)C2C3CC(C2C1=O)C1C(c2ccc(F)cc2)c2sc(=O)[nH]c2SC31` (stereo not shown) it is 8.69%; for `CC1CCN(CCCCOc2ccc([N+](=O)[O-])cc2)CC1` it is -74.7%.
Turning to `Cc1nnc(N(C)C(=O)c2cccnc2)s1`, the “hERG current change (%, negative = inhibition) at 10uM” value is given as 8.05%.
For the molecule `COc1ccc(-c2sc(NC(C)=O)nc2-c2ccccc2)cc1`, the “hERG current change (%, negative = inhibition) at 10uM” value is on record as 18.8%.
The figure for `Cc1nc(C)c(-c2ccc(SCC(=O)Nc3cccc(Cl)c3)nn2)s1` is -0.233%; for `COc1cc(OC)cc(C(=O)NCC2CCCN(Cc3ccc(SC)cc3)C2)c1` (stereo not shown) it is -72.3%; for `CCOC(=O)C(C)Sc1cnccn1` (stereo not shown) it is 9.79%.
Turning to `COc1ccc2cc(CN(CC3CCCO3)S(=O)(=O)c3ccc(C(C)=O)cc3)c(=O)[nH]c2c1` (stereo not shown), the “hERG current change (%, negative = inhibition) at 10uM” value is listed as -11.4%.
Next, `CC(=O)Nc1ccc2c(c1)CN(c1cc(C)ccc1C)CO2`: -1.85%; `Cc1cc(C(=O)N2CCC(C(F)(F)F)n3nccc32)on1` (stereo not shown): 8.4%; `Br.O=S(=O)(c1ccc(-c2csc(Nc3ccc(F)cc3)n2)cc1)N1CCCC1`: -1.05%.
Next, `COc1ccc(-c2nc(C#N)c(NCCN(C)C)o2)cc1`: -11.2%; `O=C1CN(C(=O)COC(=O)CCNS(=O)(=O)c2ccc(Cl)cc2)c2ccccc2N1`: -27.4%; `Cc1ccc(CNC(=O)C2CCCN(S(=O)(=O)c3ccc(-n4cnnn4)cc3)C2)cc1` (stereo not shown): -9.94%.
`CC(=O)c1sc(NC(=O)c2cccs2)nc1C`: the “hERG current change (%, negative = inhibition) at 10uM” value amounted to 16%.
Next, `CC1=C(C(=O)Nc2ccc(C(=O)N3CCN(c4cccc(Cl)c4)CC3)cc2)SCCO1`: -4.22%; `CCCOc1ccc(C(CC(=O)O)NC(=O)c2cccs2)cc1` (stereo not shown): 17.9%.
Turning to `CCc1nn(CC(=O)NCCN2CCN(C)CC2)c(=O)c2cc3c(OC)cccc3n12`, the “hERG current change (%, negative = inhibition) at 10uM” value is 16.1%.
In the case of `COC(=O)C1(C)NC(c2ccc(F)cc2)C2C(=O)N(c3ccc(C)cc3)C(=O)C21` (stereo not shown), the “hERG current change (%, negative = inhibition) at 10uM” value turned out to be 7.77%.
The figure for `O=C1CCC(=O)N1OCCCOc1ccc2c(c1)CCC2` is 1.61%; for `Cn1c(=O)c2c(ncn2CC(=O)OCC(=O)Nc2ccc(Cl)cc2)n(C)c1=O` it is -7.13%; for `O=c1cc(CSc2nnc(C3CC3)n2Cc2ccccc2)nc2sccn12` it is 11.7%.
As to `O=C(CCS(=O)(=O)c1cccs1)Nc1ccc(C(=O)NCc2ccc(F)cc2)cc1`, the “hERG current change (%, negative = inhibition) at 10uM” value amounted to 16.8%.
As for `CCOc1ccccc1NC(=O)c1ccc(-n2cncn2)nc1`, the “hERG current change (%, negative = inhibition) at 10uM” value is reported as 10.7%.
Next, `N#Cc1ccc(CN2CCN(C(=O)c3ccc(S(=O)(=O)NCc4ccco4)cc3)CC2)cc1`: -59.8%; `O=S(=O)(c1cccc(NC(=S)N2CCN(c3ccc(F)cc3)CC2)c1)C(F)F`: -0.566%.
On to `CCCCn1c(=O)c(C(=O)Nc2ccccc2)c(O)c2ccccc21`, for which the “hERG current change (%, negative = inhibition) at 10uM” value was found to be 10.3%.
The figure for `Cc1ccc(Cn2nnnc2CN2CCC(n3nnc4ccccc43)CC2)cc1.Cl` is -53.9%; for `CCOC(=O)Cc1nnc(NC(=O)CSc2nnc3c(n2)[nH]c2ccccc23)s1` it is -5.61%.
For the molecule `Cc1nsc(N)c1C(=O)O`, the “hERG current change (%, negative = inhibition) at 10uM” value was determined as 15.9%.
Regarding `CSCCC(NC(=O)C1CCCC1)c1nnc2ccccn12` (stereo not shown), the “hERG current change (%, negative = inhibition) at 10uM” value came out at 8.79%.
Consider `Cc1ccc(CC(=S)N2CCOCC2)cc1`, for which the “hERG current change (%, negative = inhibition) at 10uM” value turned out to be 6.06%.
With `COC(=O)c1cc(S(=O)(=O)NCC(C)c2ccccc2)cn1C` (stereo not shown), the “hERG current change (%, negative = inhibition) at 10uM” value is listed as -3.55%.

The record behind these values is PMC4336329 (PLoS ONE, 2015).
